According to patent US20180312565A1 (Affibody, published 2018):

T1: human B7-H4 (R&D Systems, cat. no. 6576-B7-50) (human, UniProt Q7Z7D3 29-258, biotinylated in ELISA)
T1 construct: bought; also called hB7-H4
T1 sequence (looked up): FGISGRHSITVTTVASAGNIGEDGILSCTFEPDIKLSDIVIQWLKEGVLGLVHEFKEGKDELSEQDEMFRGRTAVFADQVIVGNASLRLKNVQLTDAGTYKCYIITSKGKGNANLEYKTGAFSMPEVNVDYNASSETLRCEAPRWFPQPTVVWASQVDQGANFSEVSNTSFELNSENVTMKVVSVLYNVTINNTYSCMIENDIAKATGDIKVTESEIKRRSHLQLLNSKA

T2: human PD-L2 Fc Chimera (R&D Systems, cat. no. 1224-PL-100) (human, UniProt Q9BQ51 20-219, biotinylated in ELISA)
T2 construct: bought; also called hPD-L2; not shown: Fc part of the bought Fc chimera, not described
T2 sequence (looked up): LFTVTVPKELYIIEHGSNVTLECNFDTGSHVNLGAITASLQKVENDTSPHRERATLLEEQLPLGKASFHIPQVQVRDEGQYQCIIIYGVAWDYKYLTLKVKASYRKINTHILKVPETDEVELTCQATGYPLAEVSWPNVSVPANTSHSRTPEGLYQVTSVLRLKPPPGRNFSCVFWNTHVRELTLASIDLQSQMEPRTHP

T3: human B7-H3 Fc Chimera (R&D Systems, cat. no. 1027-B3-100) (human, UniProt Q5ZPR3-2 29-245, biotinylated in ELISA)
T3 construct: bought; also called hB7-H3; not shown: Fc part of the bought Fc chimera, not described
T3 sequence (looked up): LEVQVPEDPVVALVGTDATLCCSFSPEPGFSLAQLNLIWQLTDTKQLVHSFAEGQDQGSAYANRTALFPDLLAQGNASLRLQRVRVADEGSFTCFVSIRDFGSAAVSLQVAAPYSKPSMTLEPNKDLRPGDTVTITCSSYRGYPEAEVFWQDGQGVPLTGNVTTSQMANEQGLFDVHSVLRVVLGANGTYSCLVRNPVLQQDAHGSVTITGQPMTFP


What was measured:
[1] = molecular target: T4, human PD-L1 Fc Chimera (R&D Systems, cat. no. 156-B7-100) (human, UniProt Q9NZQ7 19-239, biotinylated with Sulfo-NHS-LC-Biotin in ELISA and AlphaLISA; not biotinylated in SPR); assay: SPR, 1.67-135 nM
T4 construct: bought; also called hPD-L1; biotinylated hPD-L1; not shown: Fc part of the bought Fc chimera, not described
T4 sequence (Q9NZQ7 19-239, change not shown): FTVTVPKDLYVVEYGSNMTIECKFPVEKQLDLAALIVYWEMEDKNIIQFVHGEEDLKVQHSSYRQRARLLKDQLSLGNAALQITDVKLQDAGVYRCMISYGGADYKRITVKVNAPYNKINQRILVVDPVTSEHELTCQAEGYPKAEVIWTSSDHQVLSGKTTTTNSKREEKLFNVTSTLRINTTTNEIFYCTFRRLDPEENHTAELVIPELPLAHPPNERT
Experimental: (§1) The Z variants were also tested for binding against the sequence-related proteins hPD-L2, hB7-H3 and hB7-H4. The Biacore analyses were performed essentially as described in Example 3, however a flow rate of 30 μl/min was used. […] In the specificity test, i.e. the binding analysis against hPD-L2, hB7-H3 and hB7-H4, the 24 Z variants were injected at a concentration of 500 nM.

[2] = molecular target: T5, rhesus PD-L1/Fc Chimera (Sino Biological Inc., cat. no. 90251-C02H) (rhesus monkey, UniProt F6PJN1 19-239); assay: SPR, 1.67-135 nM
T5 construct: bought; also called RhPD-L1; rhesus monkey PD-L1; not shown: Fc part of the bought Fc chimera, not described
T5 sequence (F6PJN1 entry or part of it C02H C02H): as the sequence (Q9NZQ7 19-239, change not shown) above, with A33T, A34S, S62N, R68Q, Q82R, F173L, T185A, T192I, H215L counted along it
Experimental: as §1

[3] = molecular target: T4, human PD-L1 Fc Chimera (R&D Systems, …); assay: SPR ranking, 5 and 50 nM
Experimental: as §1

[4] = molecular target: T5, rhesus PD-L1/Fc Chimera (Sino …); assay: SPR ranking, 5 and 50 nM
Experimental: as §1

[5] = molecular target: T4, human PD-L1 Fc Chimera (R&D Systems, …); assay: AlphaLISA, blocks hPD-L1 binding to hPD-1
Experimental: Exception 2: hPD-1-coated Acceptor beads were added to a final concentration of 10 μg/ml and incubated for 50 min.

[6] = molecular target: T1, human B7-H4 (R&D Systems, cat. no. …); assay: SPR
Experimental: (§2) One flow cell surface on each chip was activated and deactivated for use as blank during analyte injections. In the kinetic experiment, HBS-EP was used as running buffer and the flow rate was 50 μl/min. The analytes, i.e. the Z variants, were each diluted in HBS-EP buffer within a concentration range of 1000 to 0.01 nM and injected for 5 min, followed by dissociation in running buffer for 15-25 min. After dissociation, the surfaces were regenerated with one or two injections of 0.1% SDS. Kinetic constants were calculated from the sensorgrams using the Langmuir 1:1 model of BiaEvaluation software 4.1 (GE Healthcare).
(§3) The Z variants were also tested for binding against the sequence-related proteins hPD-L2, hB7-H3 and hB7-H4. The Biacore analyses were performed essentially as described in Example 3, however a flow rate of 30 μl/min was used.

[7] = molecular target: T2, human PD-L2 Fc Chimera (R&D Systems, …); assay: SPR
Experimental: as §2, §3

[8] = molecular target: T3, human B7-H3 Fc Chimera (R&D Systems, …); assay: SPR
Experimental: as §2, §3

[9] = molecular target: T1, human B7-H4 (R&D Systems, cat. no. …); assay: ELISA
[10] = molecular target: T2, human PD-L2 Fc Chimera (R&D Systems, …); assay: ELISA
[11] = molecular target: T3, human B7-H3 Fc Chimera (R&D Systems, …); assay: ELISA

| Binder | Kd [1] [nM] | koff [1] [s⁻¹] | kon [1] [M⁻¹ s⁻¹] | Kd [2] [nM] | koff [2] [s⁻¹] | kon [2] [M⁻¹ s⁻¹] | Kd [3] [nM] | Kd [4] [nM] | IC50 [5] [nM] | binding result [6] | binding result [7] | binding result [8] | binding result [9] | binding result [10] | binding result [11] |
| --- | --- | --- | --- | --- | --- | --- | --- | --- | --- | --- | --- | --- | --- | --- | --- |
| His6-Z17911 (designed binder) MGSSHHHHHHLQVDAKYAKERNNAAYEILYLPNLTNAQKWAFIWKLDDDPSQSSELLSEAKKLNDSQAPKVD | 0.21 | 0.00049 | 2.3e+06 | 0.2 | 0.00042 | 2.1e+06 | ~0.36 | ~2.2 | 0.57 | no binding (tested: 500 nM) | no binding (tested: 500 nM) | no binding (tested: 500 nM) |  |  |  |
| His6-Z17748 (designed binder) MGSSHHHHHHLQVDAKYAKERNAAAYEILYLPNLTQSQKWAFIWKLDDDPSQSSELLSEAKKLNDSQAPKVD | 0.34 |  |  |  |  |  | ~0.45 |  | 1.1 | no binding (tested: 500 nM) | no binding (tested: 500 nM) | no binding (tested: 500 nM) |  |  |  |
| His6-Z17756 (designed binder) MGSSHHHHHHLQVDAKYAKERNAAAFEILYLPNLTNAQKWAFIWKLDDDPSQSSELLSEAKKLNDSQAPKVD |  |  |  | 0.17 |  |  | ~0.24 | ~2.1 | 1.5 | no binding (tested: 500 nM) | no binding (tested: 500 nM) | no binding (tested: 500 nM) |  |  |  |
| His6-Z17825 (designed binder) MGSSHHHHHHLQVDAKYAKERNLAAYEILYLPNLTNAQKWAFIWKLDDDPSQSSELLSEAKKLNDSQAPKVD | 0.24 | 0.00047 | 2e+06 | 0.21 | 0.00039 | 1.9e+06 | ~0.25 | ~1.2 | 0.16 | no binding (tested: 500 nM) | no binding (tested: 500 nM) | no binding (tested: 500 nM) |  |  |  |
| His6-Z18048 (designed binder) MGSSHHHHHHLQVDAKYAKERNSAAYEILYLPNLTNAQKWAFIWKLDDDPSQSSELLSEAKKLNDSQAPKVD | 0.23 | 0.00044 | 1.9e+06 | 0.24 | 0.00038 | 1.6e+06 | ~0.35 | ~1.8 | 0.15 | no binding (tested: 500 nM) | no binding (tested: 500 nM) | no binding (tested: 500 nM) |  |  |  |
| His6-Z18064 (designed binder) MGSSHHHHHHLQVDAKYAKERNKAAYEILYLPNLTNAQKWAFIWKLDDDPSQSSELLSEAKKLNDSQAPKVD | 0.13 | 0.00043 | 3.5e+06 | 0.096 | 0.00034 | 3.5e+06 | ~0.13 | ~1.5 | 0.39 | no binding (tested: 500 nM) | no binding (tested: 500 nM) | no binding (tested: 500 nM) |  |  |  |
| His6-Z18066 (designed binder) MGSSHHHHHHLQVDAKYAKERNEAAYEILYLPNLTNSQKWAFIWKLDDDPSQSSELLSEAKKLNDSQAPKVD |  |  |  | 0.35 |  |  | ~0.43 | ~2.1 | 0.83 | no binding (tested: 500 nM) | no binding (tested: 500 nM) | no binding (tested: 500 nM) |  |  |  |
| His6-Z18074 (designed binder) MGSSHHHHHHLQVDAKYAKERNQAAFEILYLPNLTNAQKWAFIWKLDDDPSQSSELLSEAKKLNDSQAPKVD | 0.27 | 0.00054 | 2e+06 | 0.27 | 0.00046 | 1.7e+06 | ~0.36 | ~2.9 | 0.31 | no binding (tested: 500 nM) | no binding (tested: 500 nM) | no binding (tested: 500 nM) |  |  |  |
| Z13117-ABD (designed binder, domain: GA3) AQHDEALEVDAKYAKERNLAAWEILQLPNLTNYQHWAFIWKLDDDPSQSSELLSEAKKLNDSQAPKVDYVLAEAKVLANRELDKYGVSDYYKNLINNAKTVEGVKALIDEILAALPYVPG |  |  |  |  |  |  |  |  |  |  |  |  | no binding (tested: 8 nM) | no binding (tested: 8 nM) | no binding (tested: 8 nM) |
| Z13080-ABD (designed binder, domain: GA3) AQHDEALEVDAKYAKERNSAAEEILHLPNLTMQQLWAFIWKLDDDPSQSSELLSEAKKLNDSQAPKVDYVLAEAKVLANRELDKYGVSDYYKNLINNAKTVEGVKALIDEILAALPYVPG |  |  |  |  |  |  |  |  |  |  |  |  | no binding (tested: 8 nM) | no binding (tested: 8 nM) | no binding (tested: 8 nM) |
| Z13088-ABD (designed binder, domain: GA3) AQHDEALEVDAKYAKERNNAATEILRLPNLTAGQTWAFIWKLDDDPSQSSELLSEAKKLNDSQAPKVDYVLAEAKVLANRELDKYGVSDYYKNLINNAKTVEGVKALIDEILAALPYVPG |  |  |  |  |  |  |  |  |  |  |  |  | no binding (tested: 8 nM) | no binding (tested: 8 nM) | no binding (tested: 8 nM) |
| His6-Z17964 (designed binder) MGSSHHHHHHLQVDAKYAKERNAAAYEILYLPNLTNAQKWAFIWKLDDDPSQSSELLSEAKKLNDSQAPKVD | 0.21 | 0.00043 | 2.1e+06 | 0.11 | 0.00038 | 3.4e+06 | ~0.3 | ~2 | 8.9 | no binding (tested: 500 nM) | no binding (tested: 500 nM) | no binding (tested: 500 nM) |  |  |  |
